{"source": "paper PMC4336329", "about": "(PLoS ONE, 2015)", "note": "In all, about 310,000 compounds went through this assay and about 2,200 (0.71%) showed an effect of 50% or more. The effect is printed as a negative number. The list shows a part of the results."}
{"target": "human ether-à-go-go-related gene (hERG) potassium channel (human, UniProt Q12809)", "sequence (Q12809 whole entry, looked up)": "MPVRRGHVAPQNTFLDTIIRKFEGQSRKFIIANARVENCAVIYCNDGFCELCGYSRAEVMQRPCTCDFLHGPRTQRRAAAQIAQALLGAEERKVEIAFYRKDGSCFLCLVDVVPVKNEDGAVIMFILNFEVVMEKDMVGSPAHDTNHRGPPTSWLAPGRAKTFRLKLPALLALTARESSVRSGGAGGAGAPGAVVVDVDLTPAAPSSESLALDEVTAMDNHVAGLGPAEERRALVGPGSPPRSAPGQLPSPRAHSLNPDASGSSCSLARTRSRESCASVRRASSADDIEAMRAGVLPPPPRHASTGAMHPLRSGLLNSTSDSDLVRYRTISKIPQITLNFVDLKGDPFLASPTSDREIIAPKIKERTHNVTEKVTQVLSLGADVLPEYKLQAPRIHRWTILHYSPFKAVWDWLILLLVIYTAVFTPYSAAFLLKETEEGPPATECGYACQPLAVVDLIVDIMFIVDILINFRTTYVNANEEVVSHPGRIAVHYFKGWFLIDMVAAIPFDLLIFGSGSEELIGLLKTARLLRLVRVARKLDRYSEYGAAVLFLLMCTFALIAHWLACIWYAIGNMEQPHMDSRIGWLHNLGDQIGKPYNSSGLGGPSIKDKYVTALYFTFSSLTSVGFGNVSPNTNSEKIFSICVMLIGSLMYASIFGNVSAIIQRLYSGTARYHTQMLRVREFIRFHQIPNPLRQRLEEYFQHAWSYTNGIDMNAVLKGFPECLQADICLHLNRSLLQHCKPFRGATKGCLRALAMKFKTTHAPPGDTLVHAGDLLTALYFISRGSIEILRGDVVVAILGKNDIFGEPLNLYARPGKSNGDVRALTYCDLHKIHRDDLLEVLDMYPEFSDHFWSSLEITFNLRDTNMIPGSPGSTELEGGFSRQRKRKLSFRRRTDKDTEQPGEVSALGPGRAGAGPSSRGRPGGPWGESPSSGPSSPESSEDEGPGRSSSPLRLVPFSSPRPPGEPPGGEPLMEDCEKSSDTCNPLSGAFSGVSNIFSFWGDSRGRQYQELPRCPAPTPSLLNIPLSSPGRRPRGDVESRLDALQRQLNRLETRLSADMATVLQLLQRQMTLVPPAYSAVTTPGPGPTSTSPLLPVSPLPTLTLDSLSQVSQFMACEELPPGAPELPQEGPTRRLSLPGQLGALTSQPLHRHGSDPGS", "test": "primary screen, population patch clamp on CHO cells stably expressing hERG", "units": {"hERG current change (%, negative = inhibition) at 1uM": "%"}}
{"smiles": "O=C(Cc1ccccc1)N/N=C/c1cccc([N+](=O)[O-])c1", "hERG current change (%, negative = inhibition) at 1uM": 7.67}
{"smiles": "Cc1oc(C(C)(C)C)cc1C(=O)N1CCN(c2ncccc2C(F)(F)F)CC1", "hERG current change (%, negative = inhibition) at 1uM": 8.29}
{"smiles": "CCOC(=O)c1c(C)nc(C)c(C(=O)OCC)c1-c1ccc(Br)cc1", "hERG current change (%, negative = inhibition) at 1uM": -7.77}
{"smiles": "CC(CCN1C(N(C)C)=NC[C@@H]1C)c1ccccc1", "note": "(some centres unmarked)", "hERG current change (%, negative = inhibition) at 1uM": 8.4}
{"smiles": "CC(C)n1c(SCC(=O)Nc2ccccc2N2CCCCC2)nc2c1c(=O)n(C)c(=O)n2C", "hERG current change (%, negative = inhibition) at 1uM": -0.548}
{"smiles": "COC(=O)c1cc(C(=O)Nc2cc(C)ccn2)cc([N+](=O)[O-])c1", "hERG current change (%, negative = inhibition) at 1uM": 9.81}
{"smiles": "C#Cc1cccc(-n2nnc(C(C)=O)c2C)c1", "hERG current change (%, negative = inhibition) at 1uM": 13.1}
{"smiles": "C=CCn1c(SCC(=O)N(CC)C2CCS(=O)(=O)C2)nc2sc3c(c2c1=O)CCC3", "note": "(centres unmarked)", "hERG current change (%, negative = inhibition) at 1uM": -37.5}
{"smiles": "CC(=O)O[C@H]1C[C@@H]2CC[C@@H]3[C@H](CC[C@@]4(C)[C@H]3C[C@H]([N+]3(C)CCCCC3)[C@@H]4OC(C)=O)[C@@]2(C)C[C@@H]1[N+]1(C)CCCCC1.[Br-]", "hERG current change (%, negative = inhibition) at 1uM": 10.6}
{"smiles": "CCC(CO)NC(=O)c1ccccc1C(F)(F)F", "note": "(centres unmarked)", "hERG current change (%, negative = inhibition) at 1uM": 7.18}
{"smiles": "CN(C(=O)Cn1nnc(-c2cccnc2)n1)C1CCCCC1", "hERG current change (%, negative = inhibition) at 1uM": 4.03}
{"smiles": "O=C(CSc1oc(-c2cccs2)nc1S(=O)(=O)c1ccc(F)cc1)NCC1CCCO1", "note": "(centres unmarked)", "hERG current change (%, negative = inhibition) at 1uM": -9.44}
{"smiles": "O=[N+]([O-])c1cc(/C=N/N2CCOCC2)cs1", "hERG current change (%, negative = inhibition) at 1uM": 12.7}
{"smiles": "COc1ccc(-c2noc(CN3CCN(C(=O)c4cccs4)CC3)n2)c(OC)c1OC", "hERG current change (%, negative = inhibition) at 1uM": 14.2}
{"smiles": "Cc1cccc(NC(=O)c2nc[nH]c2C(=O)N[C@@H](CC(C)C)C(=O)OCc2ccccc2)c1", "hERG current change (%, negative = inhibition) at 1uM": 13.6}
{"smiles": "CC(C)CC(C(=O)Nc1ccc2c(c1)OCCO2)N1C(=O)c2ccccc2C1=O", "note": "(centres unmarked)", "hERG current change (%, negative = inhibition) at 1uM": -0.948}
{"smiles": "Cc1ccc2c(c1)N(CC(=O)NCCCN1CCN(C)CC1)C(=O)CO2", "hERG current change (%, negative = inhibition) at 1uM": 6.68}
{"smiles": "C=CCNC(=O)/C(=C\\c1ccc(Br)cc1)NC(=O)c1ccccc1OC", "hERG current change (%, negative = inhibition) at 1uM": -3.85}
{"smiles": "CC(=O)OCCCN(C)CC/C=C1/c2ccccc2CSc2ccccc21.Cl", "hERG current change (%, negative = inhibition) at 1uM": 5.71}
{"smiles": "CCOc1ccc(C(NC(=O)CC)c2c(O)ccc3ccccc23)cc1", "note": "(centres unmarked)", "hERG current change (%, negative = inhibition) at 1uM": 12.5}
{"smiles": "CSc1cc(-c2ccc(Cl)cc2)c(C(=O)N2CCCC2)s1", "hERG current change (%, negative = inhibition) at 1uM": -4.99}
{"smiles": "O=C(Nc1ccccc1)OCC1CCCN2CCCCC12", "note": "(centres unmarked)", "hERG current change (%, negative = inhibition) at 1uM": -10.9}
{"smiles": "O=C(COC(=O)c1cncc(Br)c1)NCC1CCCO1", "note": "(centres unmarked)", "hERG current change (%, negative = inhibition) at 1uM": 9.97}
